Our source for the max response values is PubChem BioAssay (NCATS).

Results filed as inconclusive are left out. Not every entry of the source has a single result; some have several. They are shown here; other results are not. An entry can have further records. Results that share an entry repeat one measurement (runs, samples, wells, individuals or studies).

The nature of the test: qHTS Assay for Lipid Storage Modulators (AID 1519). Conditions: Drosophila S3 cells, BODIPY lipid droplet/cell ratio, laser cytometry, cells loaded with oleic acid. In a few lines:
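Cells seeded at 5,000 per well were treated with compounds over a concentration series and loaded with oleic acid (400 uM, as added). Lipid droplet fluorescence (488 nm excitation, 500-530 nm channel) was read by laser-scanning cytometry and normalized to 20 uM Triacsin C.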
On the technique in general: In qHTS, concentration-response curves come from the screen itself.

Consider `O=C(O)c1cc(=O)c2ccccc2[nH]1`, for which the max response is, setting by setting: (measured here: cell count channel max response) 1.51, 0.0631, 20.5, -13.8% [separate samples]; (measured here: lipid channel max response) 16.6, 10.3, 23.2, -9.44% [separate samples].
